Where two headings read alike, the source gives them in different places.
How the values were obtained:
P. putida DOT-T1E (#348) = assay type: cell-based, Pseudomonas putida; conditions: repeated lines
PhoA5 pPAT7 = assay type: cell-based, Pseudomonas putida; conditions: gradient 0 to 50 g/L, listed as histidine

Compound: O=C(N[C@H](CO)[C@H](O)c1ccc([N+](=O)[O-])cc1)C(Cl)Cl [CAM, chloramphenicol]
- Growth (distance in mm) on CAM gradient (P. putida DOT-T1E (#348); gradient 0-50 mg/L): 90 mm
- Growth (distance in mm) on CAM gradient (P. putida DOT-T1E (#348); gradient 0-100 mg/L): 90 mm

Compound: N[C@@H](Cc1c[nH]cn1)C(=O)O [Histidine, L-histidine]
- tolerance to amino acid (PhoA5 pPAT7): at a level similar to that of the wild-type strain
